“And” between values parts separate entries of the source, which are not always exact repeats. Equal values may be shown once. The campaign covered roughly 220,000 compounds. About 5,700 (2.6%) were called active. The shares of active, inactive and inconclusive entries below differ from those in the screen. Calls come from the whole dose curve; as a rule, active = well fitted inhibition curve with a large enough effect; inconclusive = small, poorly fitted or top-dose-only effect; inactive = no such curve, though single readings can be large or run the other way. Where the call is inconclusive, the potency comes from a doubtful curve fit.
The molecules below were run against Lysine-specific demethylase 5B (Homo sapiens) (UniProt Q9UGL1) (assay: Primary screen for KDM5B Histone Demethylases FDH-coupled qHTS). Settings: FDH-coupled NADH fluorescence (FDH is formaldehyde dehydrogenase); series mostly up to 57.7 µM.
Sequence of UniProt Q9UGL1 (Q9UGL1 whole entry, looked up): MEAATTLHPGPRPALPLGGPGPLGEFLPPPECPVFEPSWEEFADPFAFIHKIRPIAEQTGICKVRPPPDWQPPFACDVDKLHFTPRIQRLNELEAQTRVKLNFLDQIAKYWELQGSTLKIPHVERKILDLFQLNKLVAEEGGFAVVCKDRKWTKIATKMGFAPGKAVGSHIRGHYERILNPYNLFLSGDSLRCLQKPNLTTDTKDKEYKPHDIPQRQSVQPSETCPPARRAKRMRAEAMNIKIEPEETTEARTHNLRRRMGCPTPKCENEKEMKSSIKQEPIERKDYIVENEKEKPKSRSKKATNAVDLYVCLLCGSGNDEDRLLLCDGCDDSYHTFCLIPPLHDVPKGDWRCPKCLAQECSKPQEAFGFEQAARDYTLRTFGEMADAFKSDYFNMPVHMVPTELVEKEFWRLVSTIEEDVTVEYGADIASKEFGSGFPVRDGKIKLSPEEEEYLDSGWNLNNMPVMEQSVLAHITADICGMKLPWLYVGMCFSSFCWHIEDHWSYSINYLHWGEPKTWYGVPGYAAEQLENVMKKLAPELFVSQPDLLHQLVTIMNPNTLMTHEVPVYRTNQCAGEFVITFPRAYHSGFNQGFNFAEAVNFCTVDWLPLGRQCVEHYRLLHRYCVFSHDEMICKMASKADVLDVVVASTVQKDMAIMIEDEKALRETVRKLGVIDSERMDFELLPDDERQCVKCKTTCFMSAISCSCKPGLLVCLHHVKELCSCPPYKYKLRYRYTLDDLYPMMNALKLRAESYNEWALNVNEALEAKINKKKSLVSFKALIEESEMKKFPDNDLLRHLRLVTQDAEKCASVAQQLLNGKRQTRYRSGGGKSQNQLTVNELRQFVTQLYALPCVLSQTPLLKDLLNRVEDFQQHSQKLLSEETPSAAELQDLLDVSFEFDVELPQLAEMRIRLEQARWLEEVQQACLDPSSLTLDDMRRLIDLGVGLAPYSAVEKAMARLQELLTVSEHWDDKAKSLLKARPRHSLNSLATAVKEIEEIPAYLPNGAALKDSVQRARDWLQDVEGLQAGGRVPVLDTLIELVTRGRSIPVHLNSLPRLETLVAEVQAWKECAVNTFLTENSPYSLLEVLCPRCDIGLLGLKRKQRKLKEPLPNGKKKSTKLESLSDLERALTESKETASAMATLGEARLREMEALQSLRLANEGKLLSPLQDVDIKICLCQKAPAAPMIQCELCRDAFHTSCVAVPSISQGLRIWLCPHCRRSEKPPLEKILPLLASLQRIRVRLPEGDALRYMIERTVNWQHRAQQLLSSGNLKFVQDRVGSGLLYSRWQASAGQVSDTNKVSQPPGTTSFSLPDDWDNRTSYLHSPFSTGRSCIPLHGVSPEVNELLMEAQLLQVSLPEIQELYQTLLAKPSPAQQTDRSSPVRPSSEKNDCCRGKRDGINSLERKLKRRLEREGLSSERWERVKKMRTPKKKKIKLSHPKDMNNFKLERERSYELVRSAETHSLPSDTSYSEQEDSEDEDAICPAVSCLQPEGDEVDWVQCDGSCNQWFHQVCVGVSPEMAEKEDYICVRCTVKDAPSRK
Method in brief: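 Here, H3K4me3 peptide (12.5 µM in substrate mix) is demethylated by KDM5BΔAP, 200 nM final, after 10 min compound exposure. Formaldehyde product is coupled through FDH (0.25 U/mL in mix) to NADH fluorescence; 30-min ΔRFU feeds dose-response curves.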
With `CCCN1CCCCC12Cc1ccccc1CN(C(=O)CC)C2` (centres undefined) the Potency was inconclusive: 63.1 µM [inhibitor, partial curve, poor fit].
With `O=C(O)C[C@@H]1CCN(Cc2ccccc2)C[C@@H]1CCN1C[C@@H]2C[C@H](C1)c1cccc(=O)n1C2` the Potency was inconclusive: 22.4 µM [inhibitor, partial curve, poor fit].
In the case of `CC1=NOC(=O)/C1=C/c1ccc(O)c(Cl)c1`, the Potency is reported as inconclusive: 20 µM [inhibitor, partial curve, poor fit].
With `c1ccc(-c2cn3c(n2)CO[C@@H](CNCc2ccc4ccccc4n2)C3)cc1` the Potency was inconclusive: 50.1 µM [inhibitor, single point].
`O=C(NCc1ccc(F)cc1)c1nc(-c2ccc(Cl)nc2)c2ccccn12` was tested, and the Potency was inconclusive: 56.2 µM [inhibitor, partial curve, poor fit].
In the case of `Cc1ccc(Cl)cc1-n1ncc2c(NC3CCCCCC3)ncnc21`, the Potency is reported as inconclusive: 35.5 µM [inhibitor, single point] and inconclusive: 39.8 µM [inhibitor, single point].
`Cc1ccccc1C(=O)N1CCC(C(=O)NCc2coc(-c3cccs3)n2)CC1` was tested, and the Potency was inconclusive: 39.8 µM [inhibitor, single point].
For `COc1ccc2[nH]c(C(=O)N3C[C@@H](Oc4ccccc4)C[C@H]3C(=O)N3CCCC3)cc2c1`, the Potency was “inactive”.
In the case of `COc1cccc(-c2ncc3c(n2)OCCN(Cc2ccc(F)cc2F)C3=O)c1`, the Potency is reported as active: 35.5 µM.
In the case of `O=C(NC1CCCC1)N1CCCC(c2nn[nH]n2)C1` (centres undefined), the Potency is reported as inconclusive: 15.8 µM [inhibitor, partial curve, poor fit].
`Cc1cc(C)cc(NC(=O)Nc2ccc3nc(N4CCOCC4)cc(C)c3c2)c1` was tested, and the Potency was “inactive”.
For `CC(C)(C)NC(=O)c1cc2cc(Br)ccc2oc1=O`, the Potency was “inactive”.
`Cc1ncc2n1C(=O)N(C1CCN(C(=O)c3ccccc3F)CC1)C2` was tested, and the Potency was inconclusive: 15.8 µM [inhibitor, partial curve, poor fit].
`COc1cc(C(=O)Nc2ccc3nc(SCc4ccc(C)cc4)sc3c2)cc(OC)c1OC` was tested, and the Potency was inconclusive: 39.8 µM [inhibitor, partial curve, poor fit].
`O=C(OCc1nc2ccccc2o1)c1cc(F)cc(F)c1` was tested, and the Potency was “inactive”.
`COc1cc(OC)cc(-c2onc(C)c2C(=O)NCc2ccccc2C)c1` was tested, and the Potency was “inactive”.
In the case of `CCC(CC)C(O)(C#Cc1ccccc1)c1ccccc1` (centres undefined), the Potency is reported as “inactive”.
In the case of `N=C(N)c1cccc(C(F)(F)F)c1`, the Potency is reported as “inactive”.
`Cc1cccc(-n2c3nc(=O)n(C)c(=O)c-3cc3ccc(Cl)cc32)c1C` was tested, and the Potency was inconclusive: 2.51 µM [inhibitor, full curve, poor fit].

— PubChem BioAssay AID1347165 (National Center for Advancing Translational Sciences (NCATS), 2019)
Note: nearly all actives have a fitted effect of over 70% in size.
Potency is the fitted concentration of half-maximal effect; tags give direction and shape of the fitted curve.
